According to PubChem BioAssay AID2147 (National Center for Advancing Translational Sciences (NCATS), 2009):
Out of some 230,000 compounds screened, about 3,600 (1.6%) were called active. The inconclusive results got no clear call from the source; some entries with a clear call stand among them for comparison. Calls come from the whole dose curve; as a rule, active = well fitted inhibition curve with a large enough effect (not every such curve was filed as active); inconclusive = small, poorly fitted or top-dose-only effect, or another doubt; inactive = no such curve, though single readings can be large or run the other way. Where the call is inconclusive, the potency comes from a doubtful curve fit.

target: Lysine-specific demethylase 4E (Homo sapiens) (UniProt B2RXH2); assay: qHTS Assay for Inhibitors of Human Jumonji Domain Containing 2E (JMJD2E); conditions: JMJD2E catalytic domain, FDH-coupled NADH fluorescence (FDH is formaldehyde dehydrogenase); series mostly up to 57.1 µM; activity change, negative = inhibition: at the top concentration
Note: nearly all actives have a fitted effect of over 50% in size.
Potency is the fitted concentration of half-maximal effect; tags give direction and shape of the fitted curve.
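Throughout, for activity change, negative = inhibition: 0% = wells with enzyme and -100% = buffer wells without enzyme.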

Sequence of UniProt B2RXH2 (B2RXH2 whole entry, looked up, the tested form may be a part): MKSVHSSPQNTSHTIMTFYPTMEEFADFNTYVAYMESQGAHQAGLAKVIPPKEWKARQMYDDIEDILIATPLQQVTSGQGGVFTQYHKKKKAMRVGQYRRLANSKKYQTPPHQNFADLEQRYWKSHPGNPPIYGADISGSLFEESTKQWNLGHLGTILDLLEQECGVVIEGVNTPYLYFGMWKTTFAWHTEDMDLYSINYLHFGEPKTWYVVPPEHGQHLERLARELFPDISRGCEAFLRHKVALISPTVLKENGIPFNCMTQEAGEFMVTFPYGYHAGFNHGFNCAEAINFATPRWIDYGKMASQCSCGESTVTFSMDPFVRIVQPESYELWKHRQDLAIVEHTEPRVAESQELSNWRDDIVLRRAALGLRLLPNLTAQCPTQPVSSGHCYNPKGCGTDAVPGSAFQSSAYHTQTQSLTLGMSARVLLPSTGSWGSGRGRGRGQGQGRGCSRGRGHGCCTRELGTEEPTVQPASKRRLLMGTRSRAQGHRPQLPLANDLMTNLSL

Compound | activity change, negative = inhibition | Potency
O=c1[nH]nc(SCc2nnc(-c3cccc(Cl)c3)o2)n1C1CCCCC1 | inactive: 12.5% | 
CCCCSc1nc(CCC)cc(=O)[nH]1 | inactive: 1.92% | 
O=C(COC(=O)c1ccccc1NC(=O)c1ccco1)NCC1CCCCC1 |  | inconclusive: 35.5 µM [inhibitor, single point]
CCOc1cc2c(cc1/C=C1/NC(=O)N(CC(=O)OC)C1=O)OCO2 |  | inconclusive: 25.1 µM [inhibitor, single point]
COc1ccc(-c2ocnc2C(=O)NCc2nn(-c3ccccc3)nc2C)cc1 |  | inconclusive: 35.5 µM [inhibitor, partial curve]
CCN1CCc2nc(NC(=O)c3ccc(S(=O)(=O)N(C)C)cc3)sc2C1 |  | inconclusive: 35.5 µM [inhibitor, single point]
O=C(Nc1nccs1)c1ccc([N+](=O)[O-])cc1 |  | inconclusive: 11.2 µM [inhibitor, full curve, poor fit]
c1coc(CNc2nc3nonc3nc2NCc2ccco2)c1 |  | inconclusive: 28.2 µM [inhibitor, single point]
CS(=O)(=O)N1CCN(c2ccc(NC(=O)C(c3ccccc3)c3ccccc3)cc2)CC1 | inactive: 10.7% | 
O=C(NCCCN1CCCC1=O)[C@H](CSCc1ccccc1)N1Cc2ccccc2C1=O |  | inconclusive: 31.6 µM [inhibitor, single point]
CCN(CC)C(=O)C1CCN(Cc2cccc(OCc3ccccc3)c2)CC1 |  | inconclusive: 22.4 µM [inhibitor, single point]
COc1ccc(CN(Cc2ccccn2)C(=O)CN2C(=O)C(C)Oc3ccccc32)cc1 (centres undefined) |  | inconclusive: 35.5 µM [inhibitor, single point]
Cc1ccc2[nH]c(=O)c(CN(Cc3nnnn3Cc3ccccc3)C3CCCC3)cc2c1 |  | inconclusive: 35.5 µM [inhibitor, partial curve]
C[C@H]1[C@H](C)CC[C@]2(C)CC[C@]3(C)C(=CC[C@@H]4[C@@]5(C)CC[C@@H](O)[C@](C)(C(=O)O)[C@@H]5CC[C@]43C)[C@H]12 | inactive: -4.45% | 
O=C(COc1cc(O)c2c(=O)cc(-c3ccccc3)oc2c1)c1ccc(F)cc1 |  | inconclusive: 39.8 µM [inhibitor, single point]
C=CC[n+]1c(/C=C2\C=Cc3cc(C)ccc3N2CC)ccc2ccccc21 |  | inconclusive: 12.6 µM [inhibitor, partial curve]
CC1(C)CC(=O)C2=C(C1)c1c(ccc3ccccc13)NC2c1ccco1 (centres undefined) |  | inconclusive: 31.6 µM [inhibitor, partial curve]
COC(=O)c1ccnc(/C=N/O)c1 |  | inconclusive: 22.4 µM [inhibitor, single point]
O=S(=O)(c1ccc2c(c1)OCCO2)N1CCC(n2nnc3cc(C(F)(F)F)ccc32)CC1 | inactive: -3.6% | 
COc1ccc(-c2cc(C(=O)Nc3cc(C)n(Cc4ccc(Cl)cc4)n3)no2)cc1OC |  | inconclusive: 28.2 µM [inhibitor, partial curve]
COc1ccc2[nH]c(=O)c(CN(CCO)C(=O)NCc3ccccc3)cc2c1 |  | inconclusive: 28.2 µM [inhibitor, partial curve]
Cc1ccc2nc(C)c3c(c2c1)N(c1ccc(F)cc1)CC3 |  | inconclusive: 39.8 µM [inhibitor, single point]
O=C(NNC(=O)c1cccnc1SCc1cccc([N+](=O)[O-])c1)c1ccccn1 |  | active: 10 µM

Compound | activity change, negative = inhibition | Potency
Nc1cc[n+](CC(=O)c2ccc3c(c2)OCCO3)cc1 | inactive: 5.18% | 
COc1cccc(/C=N/NC(=O)c2ccoc2C)c1O |  | active: 14.1 µM
COc1cccc(-c2nnc(NC(=O)c3ccccc3Br)o2)c1 |  | inconclusive: 39.8 µM [inhibitor, single point]
Cc1ccc2[nH]c(=O)c(CN(Cc3cccs3)S(=O)(=O)c3ccc4c(c3)OCCO4)cc2c1 |  | inconclusive: 35.5 µM [inhibitor, single point]
S=c1nc(-c2cccc(Cl)c2)[nH][nH]1 |  | inconclusive: 35.5 µM [inhibitor, single point]
CCc1nnc(NS(=O)(=O)c2ccc(NC(=O)/C=C/c3ccc(OC)cc3OC)cc2)s1 |  | inconclusive: 31.6 µM [inhibitor, single point]
CCCn1nnc(NC(=S)NC(=O)/C=C/c2ccc(Cl)cc2)n1 | inactive: 5.25% | 
COc1cccc(NC(=O)Cc2nnc(SCC(=O)c3ccccc3)n2C)c1 | inactive: 3.53% | 
CC(C)c1ccc(/C=C/C(=O)Nc2nncs2)cc1 |  | inconclusive: 31.6 µM [inhibitor, single point]
CCc1nc2ccccc2c2nc3ccccc3n12 |  | inconclusive: 25.1 µM [inhibitor, partial curve]
CCOC(=O)c1ccccc1NC(=S)N1CCC(C)CC1 |  | inconclusive: 31.6 µM [inhibitor, single point]
Cc1occc1C(=O)NCc1cccs1 | inactive: 4.1% | 
CC1CCCCN1S(=O)(=O)c1cnc(Cl)c(Br)c1 (centres undefined) | inactive: 0.45% | 
COCCCNc1oc(-c2ccccc2OC)nc1C#N |  | inconclusive: 11.2 µM [inhibitor, partial curve]
CCN(CC)S(=O)(=O)c1ccc(OC)c(NC(=O)c2cc(C)on2)c1 |  | inconclusive: 35.5 µM [inhibitor, single point]
CCOC(=O)Cn1c(=O)oc2cc(S(=O)(=O)NCCc3ccc(OCC)c(OCC)c3)ccc21 |  | inconclusive: 3.16 µM [inhibitor, partial curve]
COc1ccc(NC(=O)CSc2ccccn2)cc1 | inactive: -6.99% | 
CCc1nc2ccccc2nc1N1CCN(S(=O)(=O)c2c(C)cc(Cl)cc2C)CC1 |  | inconclusive: 28.2 µM [inhibitor, single point]
CCOC(=O)c1ccc(NC(=S)N2CCSC2c2ccc(Cl)cc2)cc1 (centres undefined) | inactive: -2.43% | 
CCN(CC)C(=O)CSc1ncnc2c(-c3cccs3)nsc12 |  | inconclusive: 28.2 µM [inhibitor, partial curve]
COc1ccc(OC)c(/C=C/C(=O)NCCc2nc3ccccc3[nH]2)c1 |  | inconclusive: 35.5 µM [inhibitor, partial curve]
Cc1oc2c(CN3CCOCC3)c(O)ccc2c(=O)c1-c1ccc(Cl)cc1 |  | inconclusive: 28.2 µM [inhibitor, partial curve]
CC(=O)Nc1ccccc1-c1nc2ccc(C(=O)N3CCN(c4cc(C)ccc4C)CC3)cc2[nH]c1=O |  | inconclusive: 28.2 µM [inhibitor, single point]

Compound | activity change, negative = inhibition | Potency
Cc1ccc(C(=O)Nc2oc(-c3ccccc3)cc2C#N)cc1 |  | inconclusive: 31.6 µM [inhibitor, single point]
C/C(=N\NC(=O)c1ccc(CN2CCc3ccccc3C2)cc1)c1ccccc1O |  | inconclusive: 39.8 µM [inhibitor, single point]
CC(=O)c1sc(N/N=C\c2ccc(Br)cc2)nc1C |  | inconclusive: 17.8 µM [inhibitor, single point]
CCN1C=C(Cc2ccccc2C)C2=C(C1)C(c1ccccc1C)C(C#N)=C(N)O2 (centres undefined) |  | inconclusive: 28.2 µM [inhibitor, single point]
COc1ccc(-n2c(C)c(C(=O)O)c3cc(OC)c4ccccc4c32)cc1 |  | inconclusive: 31.6 µM [inhibitor, partial curve]
CN1CCN(Cc2ccc(-c3ccc(Cl)cc3)o2)CC1 | inactive: -4.08% | 
COc1cc(/C=C2\S/C(=N/S(=O)(=O)c3ccc(C)cc3)NC2=O)c([N+](=O)[O-])cc1OC | inactive: -16.3% | 
Cc1ccc(OC(C)C)c(CN(CCO)CCO)c1 | inactive: 5.86% | 
O=c1c2ccccc2nc2ccc(NCc3cccs3)nn12 |  | inconclusive: 28.2 µM [inhibitor, partial curve]
CCCCNCCOCCOc1ccccc1-c1ccccc1 |  | inconclusive: 25.1 µM [inhibitor, single point]
O=C(NNC(=O)C12CC3CC(CC(C3)C1)C2)c1ccccn1 |  | inconclusive: 35.5 µM [inhibitor, single point]
Cc1ccc(Nc2nnc(SCc3cc(=O)n4cc(C)ccc4n3)s2)cc1 | inactive: -0.21% | 
Cc1cc2c3c(ccc(C)c3n1)N=CN2c1ccccc1 |  | inconclusive: 35.5 µM [inhibitor, partial curve]
COC(=O)c1cn(Cc2ccc(C(F)(F)F)cc2)cc(F)c1=O |  | inconclusive: 31.6 µM [inhibitor, partial curve]
CCCSc1nc(C)c2cc(C)cc(C)c2n1 |  | inconclusive: 39.8 µM [inhibitor, single point]
Cc1nc2c(oc3ccccc32)c(=O)o1 |  | inconclusive: 20 µM [inhibitor, partial curve]
COc1ccc(-c2coc3cc(O)ccc3c2=O)c(OC)c1 |  | inconclusive: 28.2 µM [inhibitor, partial curve]
Cc1ccc(-c2nn(-c3ccccc3)cc2C(=O)O)o1 |  | inconclusive: 28.2 µM [inhibitor, partial curve]
N#CCn1cnc2sc(-c3ccccc3)cc2c1=O |  | inconclusive: 28.2 µM [inhibitor, single point]
COc1ccc(-n2nnnc2-c2nc3ccccc3s2)cc1 |  | inconclusive: 31.6 µM [inhibitor, partial curve]
CC(C)(C)N=C1SCC(C)(/C=N/O)S1 (centres undefined) | inactive: -0.0086% | 
Cc1ccc(C(=O)N/C(=C\c2ccc(-c3ccc(Cl)cc3)o2)C(=O)NCCCN(C)C)cc1 |  | inconclusive: 35.5 µM [inhibitor, single point]
O=C1CCCN1CCC1CCN(C(=O)Nc2ccccc2)CC1 |  | inconclusive: 28.2 µM [inhibitor, single point]
